Measured values: patent US20140155420A1, “INHIBITORS OF EYA2” (The Regents of the University of Colorado, a body corporate, priority 2011, published 2014)

Target: T1, Eya2 ED (Homo sapiens, UniProt O00167)
T1 sequence (O00167 253-538): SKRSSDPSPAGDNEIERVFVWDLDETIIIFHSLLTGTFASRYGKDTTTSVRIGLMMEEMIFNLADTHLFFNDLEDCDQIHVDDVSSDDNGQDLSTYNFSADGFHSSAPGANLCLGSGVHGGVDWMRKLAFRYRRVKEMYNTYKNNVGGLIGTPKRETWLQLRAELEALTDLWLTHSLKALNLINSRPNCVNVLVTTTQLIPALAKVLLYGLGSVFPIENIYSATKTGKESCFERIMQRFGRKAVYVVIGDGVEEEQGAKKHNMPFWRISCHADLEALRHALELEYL
Conditions: read-out: IC50, inhibition of Eya2 ED phosphatase activity; common phosphatase inhibitors, OMFP substrate

SMILES: [F-].[Na+] [NaF]
- IC50: 6.6 mM

SMILES: [Na+].[Na+].[Na+].[O]=[V]([O-])([O-])[O-] [Na3VO4]
- IC50: 1.8 mM
